Reference: PubChem BioAssay AID1460 (National Center for Advancing Translational Sciences (NCATS), 2008)
The campaign covered roughly 270,000 compounds. About 5,800 (2.1%) were called active. The shares of active, inactive and inconclusive entries below differ from those in the screen. Calls follow the shape of the dose curve; as a rule, active = well fitted inhibition curve with a large enough effect; inconclusive = small, poorly fitted or top-dose-only effect; inactive = flat fitted curve, though single readings scatter. Potencies beside an inconclusive call are fits to weak or partial responses and may not hold up.

The molecules below were run against Microtubule-associated protein tau (Homo sapiens) (UniProt P10636) (assay: qHTS for Inhibitors of Tau Fibril Formation, Thioflavin T Binding). Conditions: recombinant tau K18 P301L, heparin-induced fibrillization, ThT fluorescence; series mostly up to 57.4 µM.
Summary of the method: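 Using a mix of unlabeled (15 uM) and Alexa 594-labeled (0.24 uM) tau K18 P301L, heparin-triggered fibrillization over 6 hr at 37 C was scored by ThT fluorescence.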
Also: nearly all actives have a fitted effect of over 55% in size.
Potency is read from the fitted curve at half-maximal effect; tags tell the direction and shape of the fitted curve.

Sequence of UniProt P10636 (P10636 whole entry, looked up): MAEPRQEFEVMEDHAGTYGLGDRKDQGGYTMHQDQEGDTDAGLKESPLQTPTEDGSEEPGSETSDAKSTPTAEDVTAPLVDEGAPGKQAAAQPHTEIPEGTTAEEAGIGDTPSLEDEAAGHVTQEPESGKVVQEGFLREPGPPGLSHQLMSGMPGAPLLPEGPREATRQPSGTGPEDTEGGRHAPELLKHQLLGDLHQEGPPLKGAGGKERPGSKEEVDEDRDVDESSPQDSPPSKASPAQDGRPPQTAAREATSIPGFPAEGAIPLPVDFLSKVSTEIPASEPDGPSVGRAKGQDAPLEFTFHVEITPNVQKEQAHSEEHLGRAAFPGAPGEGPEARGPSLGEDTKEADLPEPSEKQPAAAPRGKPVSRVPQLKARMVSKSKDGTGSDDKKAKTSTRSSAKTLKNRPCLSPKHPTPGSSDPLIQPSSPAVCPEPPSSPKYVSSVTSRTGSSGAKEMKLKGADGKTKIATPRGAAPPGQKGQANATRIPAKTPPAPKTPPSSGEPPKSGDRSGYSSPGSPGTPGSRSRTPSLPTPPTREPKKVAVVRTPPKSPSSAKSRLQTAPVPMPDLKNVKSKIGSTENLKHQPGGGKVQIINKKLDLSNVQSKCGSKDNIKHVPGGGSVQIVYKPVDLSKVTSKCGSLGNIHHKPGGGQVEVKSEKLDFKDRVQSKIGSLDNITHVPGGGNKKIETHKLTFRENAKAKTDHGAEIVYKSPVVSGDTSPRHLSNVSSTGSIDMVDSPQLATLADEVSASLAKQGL

Question: With COc1ccc(/C=C2\CCc3ccccc3C2=O)cc1Cn1nc(C)cc1C as the molecule, how does the Potency read?
Answer: Its Potency is inconclusive: 20 µM [inhibitor, partial curve].

Question: How did the Potency turn out when O=C1CC(N2CCN(Cc3ccccc3)CC2)C(=O)N1c1ccc2c(c1)OCCO2 (configuration not stated) was run?
Answer: Its Potency is “inactive”.

Question: With CCCC(CCC(=O)Nc1cc([N+](=O)[O-])ccc1O)C(=O)O (configuration not stated) as the molecule, how does the Potency read?
Answer: Its Potency is inconclusive: 11.2 µM [inhibitor, partial curve].

Question: For COc1ccc(CC(=O)c2ccc(O)cc2O)cc1, which Potency is on record?
Answer: The Potency was “inactive”.

Question: With N#C/C(=C\c1cn[nH]c1-c1ccc(Cl)cc1)C(=O)NCc1ccccc1 as the molecule, how does the Potency read?
Answer: Its Potency is inconclusive: 39.8 µM [inhibitor, partial curve].

Question: With Cc1cnc(CN2CCc3c([nH]c4ccccc34)C2CC(C)C)[nH]1 (configuration not stated) as the molecule, how does the Potency read?
Answer: Its Potency is inconclusive: 15.8 µM [inhibitor, partial curve].

Question: For O=C(CCN1c2ccccc2Sc2ccccc21)Nc1ccccc1, which Potency is on record?
Answer: The Potency was inconclusive: 25.1 µM [inhibitor, partial curve].

Question: With c1ccc(Oc2c3ccccc3nc3ccccc23)cc1 as the molecule, how does the Potency read?
Answer: The Potency was inconclusive: 10 µM [inhibitor, partial curve].

Question: Which Potency does the source give for N=C1C(c2nc3ccccc3[nH]2)=C(O)CN1c1ccc(CC(=O)O)cc1 here?
Answer: Its Potency is inconclusive: 17.8 µM [inhibitor, partial curve].

Question: With O=C(Nc1ccc(N2CCOCC2)nc1)c1ccc(C(F)(F)F)cc1 as the molecule, how does the Potency read?
Answer: Its Potency is inconclusive: 17.8 µM [inhibitor, partial curve].

Question: How did the Potency turn out when CCc1ccc2c(c1)c(N=NC1=NC(=O)CS1)c(O)n2C was run?
Answer: The Potency was inconclusive: 12.6 µM [inhibitor, partial curve].

Question: With O=C(NN=C1CCCC1)c1sc2ccccc2c1Cl as the molecule, how does the Potency read?
Answer: Its Potency is inconclusive: 5.01 µM [inhibitor, partial curve].

Question: For CCN1C(C(=O)c2ccccc2)=C(NC(=O)c2ccc(Cl)cc2)c2ccccc2S1(=O)=O, which Potency is on record?
Answer: The Potency was “inactive”.

Question: For Cc1ccc(Nc2nc(CSc3nnc(-c4ccccc4)n3C)cs2)cc1, which Potency is on record?
Answer: The Potency was inconclusive: 4.47 µM [inhibitor, partial curve].

Question: O=C(CSc1ccc(-c2ccc(Cl)cc2)nn1)Nc1ccc2c(c1)OCCO2 was tested. Which Potency did it give?
Answer: Its Potency is inconclusive: 2.82 µM [inhibitor, single point].

Question: Which Potency does the source give for Cc1ccc(NC(=O)CSc2nc(O)c(Cc3ccccc3)c(=O)n2-c2ccccc2)cc1 here?
Answer: Its Potency is inconclusive: 39.8 µM [inhibitor, single point].

Question: With O=C(CSc1ncnc2c(-c3ccc(Cl)cc3)nsc12)c1ccccc1 as the molecule, how does the Potency read?
Answer: Its Potency is active: 17.8 µM.

Question: Which Potency does the source give for O=C(CCN1CCCCC1)Nc1ccc2c(c1)C(=O)c1ccc(NC(=O)CCN3CCCCC3)cc1C2=O here?
Answer: The Potency was inconclusive: 35.5 µM [inhibitor, partial curve].

Question: How did the Potency turn out when CCCc1cc(=O)n2[nH]c(-c3ccc(Br)cc3)cc2n1 was run?
Answer: Its Potency is “inactive”.

Question: Cc1ccc(C(=O)SC2=NCCS2)cc1 was tested. Which Potency did it give?
Answer: The Potency was inconclusive: 39.8 µM [inhibitor, single point].

Question: How did the Potency turn out when CN1C(=O)C2(c3ccccc31)C1CCCC=C1C(C#N)=C(N)C2(C#N)C#N (configuration not stated) was run?
Answer: Its Potency is inconclusive: 20 µM [inhibitor, single point].

Question: With CCN1CCc2nc3ccccc3c(C(=O)Nc3ccc(NC(C)=O)cc3)c2C1 as the molecule, how does the Potency read?
Answer: The Potency was inconclusive: 28.2 µM [inhibitor, single point].

Question: With COc1cccc(C(=O)NCCc2sc(-c3cccc(C)c3)nc2C)c1 as the molecule, how does the Potency read?
Answer: Its Potency is inconclusive: 14.1 µM [inhibitor, partial curve].

Question: For CCCCNC(=O)n1c(SC)nc2ccccc21, which Potency is on record?
Answer: Its Potency is “inactive”.

Question: Which Potency does the source give for COC(=O)c1cc(CN2CCN(c3ccccc3C)CC2)ccc1O here?
Answer: The Potency was “inactive”.

Question: For CCOc1ccc(NC(=O)Cn2c(=O)n(CC(=O)NCCc3ccccc3)c(=O)c3sccc32)cc1, which Potency is on record?
Answer: The Potency was inconclusive: 39.8 µM [activator, single point].

Question: With N#Cc1ccc(-c2cccnc2)nc1SCC(=O)Nc1sc2c(c1C#N)CCC2 as the molecule, how does the Potency read?
Answer: Its Potency is inconclusive: 3.98 µM [inhibitor, full curve].

Question: How did the Potency turn out when CC(C)c1ccc(NC(=O)C(Cc2ccccc2)n2cccc2)cc1 (configuration not stated) was run?
Answer: The Potency was inconclusive: 20 µM [inhibitor, partial curve].

Question: With Cc1cc(C)c2nc(-c3ccccn3)cc(C(=O)n3cccn3)c2c1 as the molecule, how does the Potency read?
Answer: The Potency was inconclusive: 15.8 µM [inhibitor, partial curve, poor fit].

Question: CSc1nnc(NC(=O)c2cc(=O)c3cc(C)cc(C)c3o2)s1 was tested. Which Potency did it give?
Answer: The Potency was inconclusive: 4.47 µM [inhibitor, partial curve].

Question: Which Potency does the source give for CCOC(=O)C(/C=C(\C#N)C(=O)OCC)=C(/N)N1CCN(c2c(C)cccc2C)CC1 here?
Answer: Its Potency is inconclusive: 2 µM [inhibitor, full curve, poor fit].

Question: Cc1cc(C)c(C(=O)CSc2nc3ccccc3c(=O)[nH]2)cc1C was tested. Which Potency did it give?
Answer: The Potency was inconclusive: 8.91 µM [inhibitor, partial curve].

Question: With COc1ccc(NC(=O)c2[nH]c(C)c(C(C)=O)c2C)cc1Cl as the molecule, how does the Potency read?
Answer: The Potency was inconclusive: 12.6 µM [inhibitor, partial curve].

Question: CCOC(=O)c1[nH]c(C)c(/C(O)=C2\C(=O)C(=O)N(CCCN3CCOCC3)C2c2cccnc2)c1C (configuration not stated) was tested. Which Potency did it give?
Answer: Its Potency is inconclusive: 22.4 µM [inhibitor, partial curve].

Question: Which Potency does the source give for c1ccc2c(C3=NNC(=NC4CC4)SC3)c[nH]c2c1 here?
Answer: The Potency was inconclusive: 28.2 µM [inhibitor, partial curve].

Question: For COc1ccc(-c2cc3nc4ccccc4n3c(N)c2C#N)cc1, which Potency is on record?
Answer: Its Potency is inconclusive: 11.2 µM [inhibitor, partial curve].

Question: How did the Potency turn out when CCCN(CCC)C(=O)CSc1nc2n[nH]c(C)c2c(=N)n1-c1ccc(OCC)cc1 was run?
Answer: The Potency was “inactive”.

Question: For COc1cccc(CNc2sc3c(c2C(=O)Nc2ccc(OC)cc2OC)CCC3)c1, which Potency is on record?
Answer: Its Potency is inconclusive: 15.8 µM [inhibitor, partial curve].

Question: Cc1ccccc1NC(=O)c1sc2nc3n(c(=O)c2c1C)N=C(c1ccccc1)CS3 was tested. Which Potency did it give?
Answer: Its Potency is inconclusive: 22.4 µM [inhibitor, partial curve].

Question: Oc1c(C(c2ccccc2Cl)N2CCCC2)ccc2cccnc12 (configuration not stated) was tested. Which Potency did it give?
Answer: The Potency was inconclusive: 31.6 µM [inhibitor, single point].

Question: With COC(=O)C(NC(=O)c1ccccc1)(Nc1nccs1)C(F)(F)F (configuration not stated) as the molecule, how does the Potency read?
Answer: The Potency was “inactive”.

Question: How did the Potency turn out when CNC(=S)NNC(=O)c1sc2cc(C(F)(F)F)cnc2c1-c1cccnc1 was run?
Answer: The Potency was “inactive”.
